This note sets out measurements from ChEMBL document CHEMBL4888484, “Replenishing the malaria drug discovery pipeline: Screening and hit evaluation of the MMV Hit Generation Library 1 (HGL1) against asexual blood stage Plasmodium falciparum ,using a nano luciferase reporter read-out” (2022).

Molecules are shown by their SMILES. About 540 (0.36%) of roughly 150,000 compounds showed an effect of 50% or more. The list shows a part of the results.

The assay concerns Plasmodium falciparum. Put plainly: Primary screen in NF54 nanoGlo assay, in single point, at 2uM, 72h; a lower Z score goes with more inhibition. The class given is functional, Erythrocyte. To be noted: timepoint 72 hour.
Take `COc1ccc(-c2nc3cc(C)ccc3cc2CN2CCN(C)CC2)cc1OC`: the “% Inhibition” value is listed as 2% and the Z score is given as -0.28.
As to `c1ncnc(NC2(CN3CCCC3)CCCCC2)n1`, the “% Inhibition” value was -13% and the Z score worked out at 2.57.
Take `Cc1nnc(NCCc2cnn(-c3ccccc3)c2)o1`: the “% Inhibition” value is given as -11% and the Z score was 2.18.
As for `CCn1cc(CN2CCN3C(=O)N(c4ccccc4)C(=O)[C@@H]3C2)cn1`, the “% Inhibition” value was -2% and the Z score is on record as 0.24.
The corresponding values for `CC(=O)N1CCN(c2nnc(-c3cccnc3)n2Cc2ccc(Cl)cc2)CC1` are -12% and 2.35.
The corresponding values for `O=C(CCC1CCCCC1)N[C@@]1(C(F)(F)F)NC(c2ccccc2)=NC1=O` are -29% and 3.36.
As to `Cc1nn(-c2ccccc2)c(Oc2ccc(Cl)cc2)c1CN(C(=O)c1ccccc1F)C1CC1`, the “% Inhibition” value worked out at 25% and the Z score was -2.37.
Turning to `COC(=O)CC(C)(C)NS(=O)(=O)c1c(F)c(F)cc(F)c1F`, the “% Inhibition” value is listed as -3% and the Z score turned out to be 0.54.
For the compound `NC(=O)c1cccc(CN2C3CCC2CC(O)C3)c1` (stereo not drawn), the “% Inhibition” value is on record as -9% and the Z score was found to be 0.89.
The corresponding values for `COc1ccccc1CN1CC(=O)N2CC[C@@H](O)C[C@H]2C1=O` are -6% and 1.1.
Consider `O=C(CCC1CCN(C(=O)c2cnn[nH]2)CC1)N1CCCC1`, for which the “% Inhibition” value is recorded as -8% and the Z score came out at 0.94.
Regarding `O=C(Nc1ccc2c(c1)OCCCO2)c1cc2c(s1)CCCC2`, the “% Inhibition” value is reported as -6% and the Z score is 1.19.
For `Cc1ccc(C(=O)Nc2ccc(OCc3ccccc3)cc2)s1`, the “% Inhibition” value is -13% and the Z score is listed as 2.58.
As for `N#CCC(=O)N1CCC(Cc2nc3ccccc3[nH]2)CC1`, the “% Inhibition” value was -14% and the Z score was 2.29.
As for `CC(NC(=O)CC(c1cccc(C(F)(F)F)c1)c1c[nH]c2ccccc12)c1ccccc1` (stereo not drawn), the “% Inhibition” value was determined as 8% and the Z score is -0.75.
As to `CN(C)c1cccc(C(=O)N[C@H]2CCN(c3cc(-c4ccc(F)cc4)n[nH]3)C2)c1`, the “% Inhibition” value is reported as -25% and the Z score was 2.47.
The matching figures for `COc1ccc2c(c1)CN(C(=O)c1csc(C3CC3)n1)CCO2`: -11% and 1.44.
Regarding `O=c1cc(-c2ccccc2)[nH]n1-c1nc(-c2ccccc2)cc(-c2ccccc2O)n1`, the “% Inhibition” value is reported as -8% and the Z score is recorded as 1.58.
With `Cc1ccccc1CC(=O)Nc1ccc(C(=O)N2CCCCC2)cc1`, the “% Inhibition” value is listed as -13% and the Z score amounted to 1.87.
`Cc1ccccc1C(=O)N(CCc1cscn1)Cc1cccnc1`: the “% Inhibition” value is reported as -2% and the Z score is on record as 0.29.
As to `c1ccc2c(c1)CCN(c1ncncc1-c1nc(-c3ccncc3)no1)C2`, the “% Inhibition” value is reported as -21% and the Z score turned out to be 2.39.
As for `COC(=O)[C@@H]1C[C@@H](O)CN1C(C)CCc1cccc(F)c1` (stereo partly drawn), the “% Inhibition” value stood at 0% and the Z score was -0.04.
As for `O=C(C1CC=CCC1)N1CCC(S(=O)(=O)c2ccccc2)C1` (stereo not drawn), the “% Inhibition” value is 0% and the Z score is on record as -0.03.
As to `O=C(O)C1(n2ccc(C(F)(F)F)n2)CCCCC1`, the “% Inhibition” value is reported as -18% and the Z score is recorded as 1.9.
Take `COc1ccc2[nH]c3c(c2c1)CCN1C(=O)N([C@@H](C)C(=O)NC2CCN(Cc4ccccc4)CC2)C(=O)[C@]31C`: the “% Inhibition” value came to 2% and the Z score is -0.26.
As for `O=C(c1ccc2n[nH]c(=O)n2c1)N1CCOC[C@@H]1CC1CC1`, the “% Inhibition” value is on record as 9% and the Z score is given as -1.43.
With `CCC(=O)N1CCN(c2ccc(N3CCCC3)nn2)CC1`, the “% Inhibition” value is -17% and the Z score was found to be 3.23.
The corresponding values for `O=C(Cc1cccs1)N1CCN(c2cc(N3CCOCC3)ncn2)CC1` are -13% and 2.17.
For the compound `C[C@@H](c1nc2ccccc2o1)N1CCC2(CC1)OCC(=O)N2C`, the “% Inhibition” value is -4% and the Z score is 0.63.
The corresponding values for `CCc1nc(CN2CCc3cc(OC)ccc3C2)n[nH]1` are 1% and -0.1.
In the case of `CC(C)N(Cc1ccccc1)c1ncc(C(=O)NCc2ccccc2F)c(N)n1`, the “% Inhibition” value worked out at 1% and the Z score is recorded as -0.21.
Consider `CNc1cc(C)nc(-c2ccc3[nH]ccc3c2)n1`, for which the “% Inhibition” value is -3% and the Z score is reported as 0.38.
On to `Cc1nc(C(=O)N2CCOC[C@@H]2CC(=O)Nc2cccc(CO)c2C)cs1`, for which the “% Inhibition” value is reported as 1% and the Z score is given as -0.1.
Take `COc1ccccc1N1CCN(C(=O)c2csc(-c3ccc(C)s3)n2)CC1`: the “% Inhibition” value was -12% and the Z score is 1.49.
As for `CC(C)c1ccc(NC2CCC2O)cc1` (stereo not drawn), the “% Inhibition” value is -2% and the Z score came to 0.25.
As for `COC(=O)c1cc(S(=O)(=O)NCCc2csc(C)n2)cc(F)c1F`, the “% Inhibition” value worked out at 30% and the Z score was -4.08.
Consider `COC(=O)[C@@H](C)NC1CCCC(c2ncccc2C)C1` (stereo partly drawn), for which the “% Inhibition” value is reported as -22% and the Z score was determined as 3.11.
Consider `O=C(CCOc1cccc(Cl)c1Cl)Nc1nccs1`, for which the “% Inhibition” value amounted to 4% and the Z score is on record as -0.86.
For the compound `COc1ccc(C(=O)c2c(-c3ccc(Cl)cc3)c3c4n(c(COc5ccccc5F)nn24)CCCC3)c(OC)c1`, the “% Inhibition” value is -2% and the Z score was found to be 0.45.
As to `CCCC[C@H](CC)C(=O)Nc1ccccc1C(C)C`, the “% Inhibition” value was -13% and the Z score is given as 1.42.
For `Cc1ncc(CNC(=O)c2ncoc2C(F)(F)F)o1`, the “% Inhibition” value is given as 10% and the Z score is reported as -1.27.
Consider `COc1cc(C(=O)N2CC3(C/C=C/COc4ccccc4C(=O)NCCN(C)C3=O)C2)on1`, for which the “% Inhibition” value is given as 0% and the Z score was -0.03.
With `CC(C)(C)CCN1CCN(CCO)CC1`, the “% Inhibition” value is given as -9% and the Z score came out at 0.94.
As for `CCC(CC)C(=O)N1C[C@H]2CCCC(=O)N(Cc3ccccc3)[C@H]2C1`, the “% Inhibition” value came out at 29% and the Z score is listed as -3.3.
As to `CNC(=O)c1cccc(NCc2cnc3ccccn23)n1`, the “% Inhibition” value is reported as -15% and the Z score is 1.26.
`COc1ccc(CNC(=O)c2ccc3c(c2)nc2n3CCCC2)c(OC)c1`: the “% Inhibition” value was 0% and the Z score is reported as 0.07.
As to `CC(C)(C)n1nnc(Cn2c(=O)c(Cl)cc3ccccc32)n1`, the “% Inhibition” value is given as -5% and the Z score came out at 1.07.
Consider `CC1CC(C)CN(c2nc(O)c3c(n2)NC(=O)CC3c2ccncc2)C1` (stereo not drawn), for which the “% Inhibition” value is -12% and the Z score came to 1.84.
For the compound `CC[C@H]1CN(C)CCCN1C(=O)c1cc2c(cn1)OCCC2`, the “% Inhibition” value was -5% and the Z score worked out at 1.
As to `CCC[C@H](NC(=O)C(C)(C)NC(C)=O)c1nccn1C`, the “% Inhibition” value was -21% and the Z score is 2.83.
As for `COc1cccc(S(=O)(=O)N2CC(c3ccccc3)C(c3ncon3)C2)c1` (stereo not drawn), the “% Inhibition” value is -9% and the Z score is 1.49.
In the case of `CCCCCc1ccc(C(=O)Nc2ccc3[nH]cc(CCN(C)C4CCCCC4)c3c2)cc1`, the “% Inhibition” value is reported as 28% and the Z score is recorded as -2.7.
Regarding `CC1(C)C2OCCC2C1OC(=O)c1noc2c1CCCC2` (stereo not drawn), the “% Inhibition” value is reported as -2% and the Z score was 0.26.
Consider `Cc1ccc(CN(C(=O)COc2ccc(C(C)C)cc2)c2ccccn2)o1`, for which the “% Inhibition” value is listed as -4% and the Z score is given as 0.59.

What is called % Inhibition is the drop in the measured response relative to a control, in per cent.
